Source: the supplement of paper PMC8728848
This is one part of the list.

Tests used:
Experiment in all cases: glycan array binding signal (z-score within array); higher = stronger binding
Conditions in all cases: glycan notation: IUPAC condensed, linker removed
[1] = target: Man(a1-3)[Man(a1-6)]Man(b1-4)GlcNAc(b1-4)GlcNAc
Procedure, shortened: (§1)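 Glycan array binding is given as a within-array Z-score, which can be read as non-binding when negative. The arrays, 3228 of them, came from the Consortium for Functional Glycomics database and were retained only where the protein sequence was available. Z-scores were averaged across arrays of the same protein sequence at different concentrations or buffers and across linkers.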

[2] = target: Man(a1-6)Man
Procedure, shortened: as §1

[3] = target: Man(b1-4)GlcNAc
Procedure, shortened: as §1

[4] = target: Neu5Ac(a2-3)Gal
Procedure, shortened: as §1

[5] = target: Neu5Ac(a2-3)Gal(b1-3)GalNAc
Procedure, shortened: as §1

[6] = target: Neu5Ac(a2-3)Gal(b1-3)GalNAc(b1-3)Gal(a1-4)Gal(b1-4)Glc
Procedure, shortened: as §1

[7] = target: Neu5Ac(a2-3)Gal(b1-3)GalNAc(b1-3)Gal(b1-4)GlcNAc
Procedure, shortened: as §1

[8] = target: Neu5Ac(a2-3)Gal(b1-3)GalNAc(b1-4)[Neu5Ac(a2-3)]Gal(b1-4)Glc
Procedure, shortened: as §1

[9] = target: Neu5Ac(a2-3)Gal(b1-3)GalNAc6S
Procedure, shortened: as §1

[10] = target: Neu5Ac(a2-3)Gal(b1-3)GlcNAc
Procedure, shortened: as §1

[11] = target: Neu5Ac(a2-3)Gal(b1-3)GlcNAc(b1-3)Gal(b1-3)GlcNAc
Procedure, shortened: as §1

[12] = target: Neu5Ac(a2-3)Gal(b1-3)GlcNAc6S
Procedure, shortened: as §1

[13] = target: Neu5Ac(a2-3)Gal(b1-3)[Fuc(a1-4)]GlcNAc
Procedure, shortened: as §1

[14] = target: Neu5Ac(a2-3)Gal(b1-3)[Fuc(a1-4)]GlcNAc(b1-3)Gal(b1-3)[Fuc(a1-4)]GlcNAc
Procedure, shortened: as §1

[15] = target: Neu5Ac(a2-3)Gal(b1-3)[Fuc(a1-4)]GlcNAc(b1-3)Gal(b1-4)[Fuc(a1-3)]GlcNAc
Procedure, shortened: as §1

[16] = target: Neu5Ac(a2-3)Gal(b1-3)[Neu5Ac(a2-3)Gal(b1-4)]GlcNAc
Procedure, shortened: as §1

[17] = target: Neu5Ac(a2-3)Gal(b1-3)[Neu5Ac(a2-6)]GalNAc
Procedure, shortened: as §1

[18] = target: Neu5Ac(a2-3)Gal(b1-4)Glc
Procedure, shortened: as §1

[19] = target: Neu5Ac(a2-3)Gal(b1-4)GlcNAc
Procedure, shortened: as §1

[20] = target: Neu5Ac(a2-3)Gal(b1-4)GlcNAc(b1-2)Man(a1-3)[GlcNAc(b1-2)Man(b1-4)GlcNAc(b1-2)Man(a1-6)]Man(b1-4)GlcNAc(b1-4)GlcNAc
Procedure, shortened: as §1

[21] = target: Neu5Ac(a2-3)Gal(b1-4)GlcNAc(b1-2)Man(a1-3)[Neu5Ac(a2-6)Gal(b1-4)GlcNAc(b1-2)Man(a1-6)]Man(b1-4)GlcNAc(b1-4)GlcNAc
Procedure, shortened: as §1

[22] = target: Neu5Ac(a2-3)Gal(b1-4)GlcNAc(b1-3)Gal(b1-3)GlcNAc
Procedure, shortened: as §1

[23] = target: Neu5Ac(a2-3)Gal(b1-4)GlcNAc(b1-3)Gal(b1-4)GlcNAc
Procedure, shortened: as §1

[24] = target: Neu5Ac(a2-3)Gal(b1-4)GlcNAc(b1-3)Gal(b1-4)GlcNAc(b1-3)Gal(b1-4)GlcNAc
Procedure, shortened: as §1

[25] = target: Neu5Ac(a2-3)Gal(b1-4)GlcNAc(b1-3)Gal(b1-4)[Fuc(a1-3)]GlcNAc
Procedure, shortened: as §1

[26] = target: Neu5Ac(a2-3)Gal(b1-4)GlcNAc(b1-3)GalNAc
Procedure, shortened: as §1

[27] = target: Neu5Ac(a2-3)Gal(b1-4)GlcNAc(b1-6)[Gal(b1-3)]GalNAc
Procedure, shortened: as §1

[28] = target: Neu5Ac(a2-3)Gal(b1-4)GlcNAc(b1-6)[Neu5Ac(a2-3)Gal(b1-3)]GalNAc
Procedure, shortened: as §1

[29] = target: Neu5Ac(a2-3)Gal(b1-4)GlcNAc6S
Procedure, shortened: as §1

B1: HHL-1 (Homo sapiens), P07306 (protein)
chain: TKEYQDLQHLDNEESDHHQLRKGPPPPQPLLQRLCSGPRLLLLSLGLSLLLLVVVCVIGSQNSQLQEELRGLRETFSNFTASTEAQVKGLSTQGGNVGRKMKSLESQLEKQQKDLSEDHSSLLLHVKQFVSDLRSLSCQMAALQGNGSERTCCPVNWVEHERSCYWFSRSGKAWADADNYCRLEDAHLVVVTSWEEQKFVQHHIGPVNTWMGLHDQNGPWKWVDGTDYETGFKNWRPEQPDDWYGHGLGGGEDCAHFTDDGRWNDDVCQRPYRWVCETELDKASQEPPLL
Which results are given for B1?
glycan array binding signal (z-score) [1]: -0.456; glycan array binding signal (z-score) [2]: -0.551; glycan array binding signal (z-score) [3]: -0.539; glycan array binding signal (z-score) [4]: -0.524; glycan array binding signal (z-score) [5]: 0.366; glycan array binding signal (z-score) [6]: 0.139; glycan array binding signal (z-score) [7]: -0.541; glycan array binding signal (z-score) [8]: -0.564; glycan array binding signal (z-score) [9]: -0.473; glycan array binding signal (z-score) [10]: 0.347; glycan array binding signal (z-score) [11]: -0.449; glycan array binding signal (z-score) [12]: -0.011; glycan array binding signal (z-score) [13]: -0.492; glycan array binding signal (z-score) [14]: -0.53; glycan array binding signal (z-score) [15]: -0.48; glycan array binding signal (z-score) [16]: -0.548; glycan array binding signal (z-score) [17]: -0.238; glycan array binding signal (z-score) [18]: -0.422; glycan array binding signal (z-score) [19]: -0.203; glycan array binding signal (z-score) [20]: 0.274; glycan array binding signal (z-score) [21]: -0.393; glycan array binding signal (z-score) [22]: -0.121; glycan array binding signal (z-score) [23]: -0.542; glycan array binding signal (z-score) [24]: 0.175; glycan array binding signal (z-score) [25]: 0.959; glycan array binding signal (z-score) [26]: -0.49; glycan array binding signal (z-score) [27]: 0.376; glycan array binding signal (z-score) [28]: 0.154; glycan array binding signal (z-score) [29]: -0.208
